# Reference: paper PMC4336329 (PLoS ONE, 2015)
# Screen size: about 310,000 compounds; about 2,200 (0.71%) showed an effect of 50% or more. The effect is printed as a negative number. The list shows a part of the results.
# Biological target: human ether-à-go-go-related gene (hERG) potassium channel (human, UniProt Q12809)
# Experiment: primary screen, population patch clamp on CHO cells stably expressing hERG
# Sequence of human ether-à-go-go-related gene (hERG) potassium channel (Q12809 whole entry, looked up): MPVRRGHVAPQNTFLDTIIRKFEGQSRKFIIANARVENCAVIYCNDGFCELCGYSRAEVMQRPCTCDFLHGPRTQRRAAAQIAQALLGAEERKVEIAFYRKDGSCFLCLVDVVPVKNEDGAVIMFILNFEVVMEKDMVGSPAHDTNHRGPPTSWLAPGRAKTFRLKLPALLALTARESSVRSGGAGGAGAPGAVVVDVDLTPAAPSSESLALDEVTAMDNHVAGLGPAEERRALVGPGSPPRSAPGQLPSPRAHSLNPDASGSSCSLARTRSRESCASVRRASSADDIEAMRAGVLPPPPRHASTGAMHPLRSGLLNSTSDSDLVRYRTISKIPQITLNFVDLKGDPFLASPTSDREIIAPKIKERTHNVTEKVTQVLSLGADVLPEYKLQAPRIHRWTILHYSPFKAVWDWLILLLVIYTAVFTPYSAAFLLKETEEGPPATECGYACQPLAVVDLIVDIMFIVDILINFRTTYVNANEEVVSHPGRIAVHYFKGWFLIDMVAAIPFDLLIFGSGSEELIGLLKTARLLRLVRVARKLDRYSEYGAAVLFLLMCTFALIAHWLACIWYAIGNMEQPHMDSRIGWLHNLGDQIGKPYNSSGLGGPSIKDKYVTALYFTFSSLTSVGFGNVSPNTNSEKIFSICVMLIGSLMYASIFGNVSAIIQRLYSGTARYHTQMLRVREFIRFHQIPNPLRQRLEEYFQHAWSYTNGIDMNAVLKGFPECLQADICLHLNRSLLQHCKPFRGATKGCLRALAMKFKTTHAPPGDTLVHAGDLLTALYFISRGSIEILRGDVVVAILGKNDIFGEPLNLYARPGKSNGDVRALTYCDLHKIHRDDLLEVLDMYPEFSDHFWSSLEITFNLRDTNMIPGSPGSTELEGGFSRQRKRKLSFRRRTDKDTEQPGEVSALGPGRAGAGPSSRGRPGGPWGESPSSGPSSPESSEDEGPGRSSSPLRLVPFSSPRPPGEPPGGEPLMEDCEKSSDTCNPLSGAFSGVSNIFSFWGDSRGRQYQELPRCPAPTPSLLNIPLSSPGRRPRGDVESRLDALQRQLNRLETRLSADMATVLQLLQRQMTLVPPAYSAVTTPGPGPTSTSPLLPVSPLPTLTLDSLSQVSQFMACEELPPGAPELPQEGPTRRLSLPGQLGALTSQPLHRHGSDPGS
row,SMILES,"hERG current change (%, negative = inhibition) at 1uM"
1,O=C(Nc1ccncc1)C1CC1c1ccccc1 (centres unmarked),9.19%
2,CC(C)COc1ccc(C(=O)Nc2ccc(SC(F)F)cc2)cc1,9.66%
3,O=C(Nc1ccc(F)c(Cl)c1)C1CCCN(C2=NS(=O)(=O)c3ccccc32)C1 (centres unmarked),-10.4%
4,Cc1cc(C)c2oc(-c3ccc(C)c(NC(=S)NC(=O)c4cccs4)c3)nc2c1,8.53%
5,Clc1ccc(OCc2nn3c(-c4ccco4)nnc3s2)cc1,-8.42%
6,O=C(CN(C(=O)CCNC(=O)c1ccco1)c1ccccc1)NC1CCCC1,12%
7,N#CC1(NC(=O)CSc2nncn2-c2ccccc2F)CCCC1,6.77%
8,Cc1cc(C)nc(NC(=O)c2cccc([N+](=O)[O-])c2)c1,5.03%
9,Cc1nc2ccccc2nc(C)c1=NOCC(=O)N(c1ccccc1)C(C)C,1.71%
10,CC1CC(C)CN(CCCNC(=O)CCC(=O)N2CC(C)Oc3ccccc32)C1 (centres unmarked),-5.09%
11,CN1CCN(CCC(C#N)(c2ccccc2)c2ccccc2)CC1.Cl,-35.1%
12,Cc1cc(NC(=O)c2cc(C)on2)no1,-0.312%
13,O=[N+]([O-])c1cccc(CN2C[C@@]34C=C[C@@H](C[C@@H]3S2(=O)=O)O4)c1,1.88%
14,COc1ccc(-c2cc([C@H]3[C@H]4C=CC[C@@H](C)[C@@H]4C(=O)N3Cc3ccccc3)ccc2F)cc1OC,5.44%
15,CC(C)C[C@@H](N)c1nnc(SCC(=O)c2ccc(Cl)cc2)o1.Cl,-8.91%
16,O=C(CCNC(=O)c1ccc(Br)cc1)NCCCN1CCOCC1,15.8%
17,Cc1ccc([C@@H]2[C@@H]3C(=O)N(c4ccccc4)C(=O)[C@@H]3[C@]3(Cc4ccccc4)C(=O)N(CC4CC4)CC(=O)N23)o1,6.29%
18,CCOC(=O)N1CCN(C(=O)c2ccc(NS(=O)(=O)c3ccc(F)cc3)cc2)CC1,5.07%
19,Cn1c(=O)c2cc(NCc3ccccc3)nnc2n(C)c1=O,13.3%

row,SMILES,"hERG current change (%, negative = inhibition) at 1uM"
1,COc1ccc(C(=O)NN/C(C)=C/C(=O)c2ccccc2)cc1,13.3%
2,COc1cc2c(cc1OC)C1Cc3ccc(OC)c(OC)c3CN1CC2.Cl (centres unmarked),10.4%
3,Cc1ccsc1CN(C)CC(=O)Nc1ccc([N+](=O)[O-])cc1Cl,16.5%
4,CC(C)n1nc(CC(=O)O)c2ccccc2c1=O,8.54%
5,CCOC(=O)CSc1nc(C(C)(C)C)nc2ccccc12,2.26%
6,O=S(=O)(CCN1CCN(c2ccccn2)CC1)c1ccc(F)cc1,2.13%
7,CCC1(C)NC(=O)N(CC(=O)Nc2sc3c(c2C(=O)OC)CCCCC3)C1=O (centres unmarked),7.27%
8,Cc1ccc(C(=O)OCC(=O)NCc2ccco2)cc1S(=O)(=O)N1CCOCC1,9.87%
9,CCC1(C)Cc2ccccc2/C(=C/C(=O)N2CCCCC2)N1.Cl (centres unmarked),8.56%
10,Cn1nc(C(F)(F)F)c(C(=O)Nc2ccc(F)cc2F)c1Sc1ccc(C(F)(F)F)cc1,-8.56%
11,Cc1ncsc1CCOC(=O)c1ccc(Cl)cc1,2.92%
12,Cc1ccc(C)c(S(=O)(=O)Nc2cc3c4c(c2)CCN4C(=O)CC3)c1,1.74%
13,CCCCCC(=O)NNC(=S)NC(C)=O,13.3%
14,CCOC(=O)c1c(NC(=O)C(Sc2ccccc2)c2ccccc2)sc(C(N)=O)c1C (centres unmarked),5.28%
15,CCCc1ccc(OCc2nc(-c3ccc(NC(=O)c4ccco4)cc3)no2)cc1,4.4%
16,COc1ccc(CN2C(=NC(=O)c3ccccc3)SC3CS(=O)(=O)CC32)cc1OC (centres unmarked),4.25%
17,CCCCOc1ccc(CNn2c(C)nc3ccccc3c2=O)cc1,15.5%
18,C=CCc1c(C)nc(C)nc1N/N=C/c1ccc([N+](=O)[O-])cc1.Cl,-29.9%
19,CCOc1ccc(NC(=O)CN(C)C(=O)c2ccc3[nH]c4c(c3c2)CC(C)CC4)cc1OCC (centres unmarked),12%

row,SMILES,"hERG current change (%, negative = inhibition) at 1uM"
1,CS(=O)(=O)N1CCN=C1SCc1cccc(F)c1,11.9%
2,O=C(CSc1nc2ccc([N+](=O)[O-])cc2[nH]1)NC1CCCCC1,6.16%
3,CCOC(=O)C1=C(C)N(CCCC(=O)O)C(=O)NC1c1ccccc1Cl (centres unmarked),4.34%
4,CCS(=O)(=O)N1Cc2ccccc2CC1C(=O)N(C)CC(=O)Nc1cccc(F)c1 (centres unmarked),6.1%
5,Br.CCn1c(O)c(N=NC2=NC(=O)CS2)c2ccccc21,-0.763%
6,Cc1sc(NC(=S)NC(=O)c2ccccc2)c(C#N)c1C,5.2%
7,CC(=O)c1c([O-])n(-c2cccc(Cl)c2)c(=O)[nH]c1=O.C[NH+](C)C,13%
8,CCCCS(=O)(=O)N1CCN(S(=O)(=O)c2ccc(Cl)s2)CC1,2.15%
9,COc1ccccc1-c1noc(CCC(=O)Nc2cc(C(F)(F)F)ccc2Cl)n1,5.53%
10,O=C(CCN1C(=O)/C(=C\C=C\c2ccccc2)SC1=S)Nc1ccc(C(=O)O)cc1,11%
11,CC(C)CNC(=O)/C=C/c1cccs1,-2.5%
12,CCOC(=O)C1CSC(CC(=O)Nc2ccc(Cl)cc2)C(=O)N1 (centres unmarked),4.16%
13,N#CC1=C(N)Oc2cc(N)ccc2C1c1ccsc1 (centres unmarked),8.36%
14,Cn1c(=O)c(=O)n(C)c2cc(S(=O)(=O)NCCOc3ccccc3)ccc21,11.1%
15,NC(=O)CSc1nc2sc3c(c2c2ncnn12)CCCC3,-12.8%
16,CCS(=O)(=O)N1Cc2ccccc2CC1C(=O)Nc1nc2ccc(F)cc2s1 (centres unmarked),14.5%
17,COCCNC(=O)CN(CCc1ccccc1)S(=O)(=O)c1ccc(OC)cc1,2.75%
18,O=C(Nc1cc2ccccc2oc1=O)c1ccccc1,16%
